The whole screen tested about 52,000 compounds, of which about 4,300 (8.3%) were called active. No stated cut-off is given here; in the data, active means survival mostly below about 52% (no sharp cut-off); inactive means mostly above about 56%. Some of the results follow.
These molecules were tested on DeltatarO mutant (assay: S. aureus survival, RN4220 and DeltatarO strains – OD600, teichoic acid synthesis inhibitors, primary screen (AID 463173)). Details: S. aureus RN4220 wild type/DeltatarO growth, OD600, 18 h, hits give low values, screened at 18.75 µg/mL (by protocol).

| SMILES | survival |
| --- | --- |
| COc1ccc(NC(=O)Nc2cc(-c3cn4cccnc4n3)ccc2C)cc1 | inactive: 86% |
| O=C(NC1CCN(Cc2ccccc2)CC1)c1ccc(Cn2c(=O)c3ccccc3n(Cc3ccc(Cl)cc3)c2=O)cc1 | inactive: 83% |
| CC(=O)N1CCc2c(sc3c2c(=O)n(-c2ccccc2)c(=O)n3CC(=O)c2ccccc2)C1 | inactive: 95% |
| CC(=O)N1CCc2cc(S(=O)(=O)NC(Cc3ccccc3)C(=O)NCc3ccccc3)ccc21 (stereo not given) | inactive: 79% |
| CC(=O)Nc1ccc(NC(=O)c2ccc3c(c2)N(Cc2cccc(Cl)c2)C(=O)c2ccccc2S3=O)cc1 (stereo not given) | inactive: 93% |
| Cc1cccc(C(=O)Nc2cc3c(cc2C)n(C)c(=O)n3C)c1 | inactive: 68% |
| CCC(=O)N1CCc2cc(Br)cc(S(=O)(=O)NCCc3cccc(C)c3)c21 | inactive: 102% |
| CCC(=O)NCC1(c2ccccc2)CCCC1 | inactive: 103% |
| O=C(c1ccccc1)N1CCN(S(=O)(=O)c2ccccc2)CC1 | inactive: 68% |
| O=C(Nc1sc2c(c1C(=O)NCc1ccco1)CCCC2)c1cc(=O)c2cc(Cl)ccc2o1 | active: 38% |
| Cc1cc(C)c2nc(C)cc(Nc3cccc(C(=O)O)c3)c2c1 | inactive: 70% |
| CCOc1cc(C(=O)Nc2cc3c(cc2N2CCCC2)n(C)c(=O)c(=O)n3C)cc(OCC)c1OCC | inactive: 74% |
| Cc1nnc(N2CCN(C(=O)NCCC(C)C)CC2)c2nn(-c3ccc(Cl)cc3)c(C)c12 | inactive: 94% |
| CCc1ccc(S(=O)(=O)Nc2cccc(-c3ccc(N4CCCCC4)nn3)c2)s1 | inactive: 84% |
| O=C1C(c2ccc(F)cc2)N(CCc2ccc(Cl)cc2)C(=O)CN1C1CCCCC1 (stereo not given) | inactive: 84% |
| COc1ccc(NC(=O)C2CCCN(S(=O)(=O)c3c(C)[nH]c(=O)[nH]c3=O)C2)cc1OC (stereo not given) | inactive: 138% |
| CCN1CCN(c2csc3ccc(Br)cc3c2=O)CC1 | inactive: 78% |
| CCn1c(=O)c2cc(C(=O)NCc3cc(OC)ccc3OC)sc2c2ccccc21 | active: 54% |
| Cc1ccc(NC(=O)C2CCCN(c3ncnc4c3nc3n4CCCCC3)C2)c(Br)c1 (stereo not given) | inactive: 87% |
| CCCCCn1cnc2c1c(=O)[nH]c(=O)n2C | inactive: 95% |
| O=C(CSc1ncnc2c1cnn2-c1ccccc1)c1ccccc1 | inactive: 78% |
| COc1ccc(NC(=O)c2oc3ccccc3c2NC(=O)c2cc(=O)c3cc(Cl)ccc3o2)cc1 | inactive: 54% |
| COc1ccc(Cl)cc1NCc1nnc2n1CCCCC2 | active: 8% |

| SMILES | survival |
| --- | --- |
| COC(=O)c1c(NC(=O)c2ccc(OC)cc2OC)sc2c1CCCCC2 | inactive: 47% |
| COc1ccc(CC(C)NS(=O)(=O)c2ccc3c(c2)CCN3S(C)(=O)=O)cc1OC (stereo not given) | inactive: 124% |
| COc1ccc2[nH]c3c(c2c1)CCN(C(=O)CCC1CCCC1)C3c1ccc(F)cc1 (stereo not given) | inactive: 64% |
| O=C(CC1N=C2c3ccccc3N=C(SCc3ccc(F)cc3)N2C1=O)NCCc1ccccc1 (stereo not given) | inactive: 85% |
| Cc1cccc(Cn2c(-c3ccccc3)nc3ccccc32)c1 | active: -2% |
| O=C(CSc1nccn1-c1ccc(F)cc1)Nc1nc2ccccc2s1 | inactive: 69% |
| Cc1ccc(-c2cnc(C3CC3)o2)cc1S(=O)(=O)Nc1cccc(C)c1C | inactive: 82% |
| Cc1ccc(-n2nc3c(=O)n(C(C)C(=O)NCc4ccc(OC(C)C)cc4)nc(C)c3c2C)cc1 (stereo not given) | inactive: 67% |
| COc1ccc2c(CNCc3cccs3)c(C(=O)O)n(Cc3ccc(F)cc3)c2c1 | inactive: 73% |
| O=Nc1c(O)n2c3c(cccc13)CCC2 | inactive: 95% |
| CCCCn1c(=O)n(CC2CCC(C(=O)NCCCOC)CC2)c(=O)c2sccc21 (stereo not given) | inactive: 83% |
| COc1cc(OC)cc(-c2nc3nc(C)c(CCC(=O)Nc4cc(C)cc(C)c4)c(C)n3n2)c1 | inactive: 69% |
| CC(C)Cn1cc(NC(=O)N2CCN(c3ccc(F)cc3)CC2)c2ccccc2c1=O | inactive: 99% |
| CC(=O)c1ccc(NC(=O)CSC2=Nc3ccccc3N=C(c3ccc(F)cc3)C2)cc1 | inactive: 84% |
| CCC(Cc1ccccc1)NC(=O)Cn1nc(C)n2c(cc3occc32)c1=O (stereo not given) | inactive: 74% |
| O=C(NCc1ccc(Cl)cc1)C1CCN(S(=O)(=O)c2cccc3nonc23)CC1 | inactive: 125% |
| CN(C)CC(C)(C)C1OCC2(CO1)COC(C(C)(C)CN(C)C)OC2 (stereo not given) | inactive: 94% |
| CCOc1ccc2nc(NC(=O)c3nc(SCc4ccccc4F)ncc3Cl)sc2c1 | inactive: 67% |
| Cc1cc(C)cc(-n2c(SCC(=O)Nc3ccccc3)nc3c(oc4ccccc43)c2=O)c1 | inactive: 101% |
| COc1cccc2cc(-c3nc(-c4ccccc4F)no3)c(=O)oc12 | inactive: 93% |
| CCOc1ccccc1CNC(=O)c1cc2c(=O)n(Cc3cccnc3)ccc2nc1C | inactive: 69% |
| Cc1c(C=Nc2ccc(Cl)cc2)c(O)n(C)c(=O)c1C#N | inactive: 74% |
| N#CC(C#N)=C(N)/C(C#N)=C/c1cccs1 | inactive: 81% |

| SMILES | survival |
| --- | --- |
| CC(=O)c1cccc(NC(=O)c2sc(-n3nc(C)c(Cc4ccccc4)c3C)nc2C)c1 | inactive: 72% |
| CCCS(=O)(=O)N1CC(=O)N(c2cccc(Cl)c2)C(C)(C(=O)NC2CCCCC2)C1 (stereo not given) | inactive: 77% |
| CCCCN(C)CC(O)Cn1cc(/C=C/C(=O)c2ccc(Br)cc2)c2ccccc21 (stereo not given) | active: 0% |
| Cc1cc(=O)[nH]c2nnc(SCc3ccc(Cl)cc3Cl)n12 | inactive: 123% |
| O=C(N/N=C/c1ccc[nH]1)c1ccccc1O | inactive: 75% |
| Cc1ccc2c(CNC3CCCCC3)c(C(=O)O)n(Cc3ccc(F)cc3)c2c1 | inactive: 82% |
| O=C(Cn1c(SCc2ccc(F)cc2)nc2cccnc21)Nc1ccccc1F | inactive: 101% |
| COCCNC(=O)c1ccc2c(c1)N(Cc1cc(C)ccc1C)C(=O)c1ccccc1S2=O (stereo not given) | inactive: 77% |
| Cc1ccc2nc(COc3cccc(NC(=O)Nc4ccc(C)c(Cl)c4)c3)cc(=O)n2c1 | active: 25% |
| CN(C)C(=O)CNCC1CCCO1 (stereo not given) | inactive: 93% |
| Cn1ncc(N)c1C(=O)N1CCOCC1 | inactive: 101% |
| CCOCCc1nnc(NC(=O)C(=O)c2cc(C)n(-c3ccc(C)cc3C)c2C)s1 | inactive: 64% |
| Cc1ccc(S(=O)(=O)N2C(=O)CCC2C(=O)N2CCCC2)cc1 (stereo not given) | inactive: 97% |
| CCn1c(C)c(C)c2cc(C(=O)NCC(C)c3ccccc3)ccc21 (stereo not given) | inactive: 80% |
| COc1ccc2c(c1)c1c(c(=O)n(Cc3ccccc3)c(=O)n1CC(=O)Nc1ccccc1OC)n2C | inactive: 79% |
| COc1ccc(N(CC(=O)Nc2cccc(Cl)c2)S(=O)(=O)c2c(C)[nH]c(=O)[nH]c2=O)cc1 | inactive: 76% |
| CCOc1ccc(Nc2nc(-c3cccc(Cl)c3)c3c(n2)-c2ccccc2OC3)cc1 | inactive: 63% |
| Cc1ccccc1-c1noc(CSc2nc3ccccc3[nH]2)n1 | inactive: 57% |
| CCOC(=O)C1CCCN(C(=O)c2ccc3c(c2)sc2nc(-c4cccc(OC)c4)cn23)C1 (stereo not given) | inactive: 77% |
| CCOCCc1nn2c(=O)cc(COC(=O)c3ccccc3OC)nc2s1 | inactive: 94% |
| COCCCn1c(SCc2cccc(Cl)c2)nc2c(sc3ccccc32)c1=O | inactive: 118% |
| COc1ccc(CCCc2nnc(SCC(=O)Nc3cccc(F)c3C)o2)cc1 | active: 39% |
| CCc1ccccc1Nc1nn2c(=O)c3ccc(C(=O)NCCC4=CCCCC4)cc3nc2s1 | inactive: 124% |

| SMILES | survival |
| --- | --- |
| Cc1cc(=O)n2nc(N(C)CC(=O)NCc3ccccc3C)sc2n1 | inactive: 109% |
| CCCC(=O)Nc1cccc(OCc2cc(=O)n3cccc(C)c3n2)c1 | inactive: 82% |
| O=C(NCCc1ccccc1)c1cc(Nc2ccccc2)nc2ccccc12 | inactive: 76% |
| CCOc1ccc(-n2c(=O)c3c4c(sc3n(CC(=O)NC(C)CC)c2=O)CCCCC4)cc1 (stereo not given) | inactive: 98% |
| COC(=O)c1ccc(N2C(=O)Cc3cc(OC)c(OC)cc3C2c2ccc(F)cc2)cc1 (stereo not given) | inactive: 70% |
| CCN1C(C(=O)c2ccccc2)=C(OC(=O)COc2ccc(C)cc2)c2ccccc2S1(=O)=O | inactive: 79% |
| Cc1ccc(CNC(=O)CSc2nc3c(sc4ccccc43)c(=O)n2CCCC(=O)NCCO)cc1 | inactive: 67% |
| CCc1ccccc1N=C1SCC(=O)N1C | inactive: 88% |
| O=C(Nc1ccc(F)cc1)Nc1csc2c1CCCC2 | active: 4% |
| COc1ccc(N2CCN(CCCNC(=O)C3COc4ccccc4C3)CC2)cc1 (stereo not given) | inactive: 131% |
| O=C(c1ccc2c(Cl)c3c(nc2c1)CCCC3)N1CCN(c2ccc(Cl)cc2)CC1 | inactive: 92% |
| O=C(Nc1nc2c(F)cc(F)cc2s1)c1ccc(S(=O)(=O)N2CCc3ccccc32)cc1 | inactive: 115% |
| O=C1Cc2cc(S(=O)(=O)N3CCN(c4cccc(Cl)c4)CC3)ccc2N1 | inactive: 73% |
| CC(=O)N1CCCC1c1nc2ccccc2n1Cc1ccccc1Cl (stereo not given) | inactive: 88% |
| O=C(NCc1cccnc1)c1cccc(C(=O)NCc2cccnc2)c1 | inactive: 93% |
| CCOc1ccc(CCn2c3c(c(=O)[nH]c2=O)C(NC(=O)c2cccc(F)c2)(C(F)(F)F)C(=O)N3)cc1OCC (stereo not given) | inactive: 76% |
| Cc1c(CCNC(=O)c2c(F)cccc2F)sc2nc(-c3ccc(F)cc3)nn12 | inactive: 117% |
| O=C(Cc1ccc(-c2ccccc2)cc1)NCCS(=O)(=O)N1CCN(c2ccc(F)cc2)CC1 | inactive: 67% |
| Cn1ncc2c(N3CCN(c4ccc(F)cc4)CC3)ncnc21 | inactive: 77% |
| COc1cc(-c2nc3sccn3c2Nc2c(C)cccc2C)ccc1O | inactive: 125% |
| Cc1nc2c3cc(F)ccc3n(C)c2s1 | inactive: 79% |

Source: PubChem BioAssay AID463173 (ICCB-Longwood Screening Facility, Harvard Medical School, 2010)
